Experimental data from patent publication US20160031967A1 (Affibody, published 2016).
Changes are numbered by the printed parent chain. Names may count otherwise.

B1: His6-tagged Z10140 (designed binder)
chain: MGSSHHHHHHLQVDAKYAKERSAAAHEIRWLPNLTFDQRVAFILKLTDDPSQSSELLSEAKKLNDSQAPKVD
B2: His6-tagged Z10156 (designed binder)
chain: B1 chain with S22T, A23Q, A25S, F36Y, L44N, T47R
B3: His6-tagged Z10183 (designed binder)
chain: B1 chain with R21A, S22D, A23N, A25G, F36W, D37A, V40W, L44H, T47L
B4: Z11948-PP013-Z03638 (designed binder)
chain: AEAKYAKEQDAAAHEIRWLPNLTFDQRVAFIHKLADDPSQSSELLSEAKKLNDSQAPKGAPGGGGSGGGGSGGGGSGGGGSTSLAEAKEAANAELDSYGVSDFYKRLIDKAKTVEGVEALKDAILAALPGTGGGGSGGGGSGGGGSGGGGSPRAEAKYAKELGWATWEIFNLPNLTGVQVKAFIDKLRDDPSQSSELLSEAKKLNDSQAPK
notes: also called Z11948 in fusion with PP013-Z03638
B5: Z11946-PP013-Z03638 (designed binder)
chain: B4 chain with Q9F, D10E, A11S, F24Y, A35S
notes: also called Z11946 in fusion with PP013-Z03638
B6: Z11947-PP013-Z03638 (designed binder)
chain: B4 chain with Q9W, D10M, A11R, A35E
notes: also called Z11947 in fusion with PP013-Z03638
B7: His6-tagged Z10109 (designed binder)
chain: B1 chain with R21A, S22N, A23T, L44R, T47W
B8: His6-tagged Z13993 (designed binder)
chain: B1 chain with R21A, S22G, A23R, F36W, L44W, T47R
B9: His6-tagged Z13616 (designed binder)
chain: B1 chain with R21W, S22Q, A23Q, L44H, T47R
B10: His6-tagged Z07909 (designed binder)
chain: B1 chain with S22Q, A23E, L44V, T47L
B11: His6-tagged Z10111 (designed binder)
chain: B1 chain with R21D, S22D, A23T, F36Y, D37E, V40W, L44H, T47Y
B12: His6-tagged Z13578 (designed binder)
chain: B1 chain with R21W, S22T, A23D, L44H, T47R
B13: His6-tagged Z13583 (designed binder)
chain: B1 chain with R21L, S22E, A23K, A25G, L44H, T47R
B14: His6-tagged Z13592 (designed binder)
chain: B1 chain with R21V, S22D, A23I, L44H, T47R
B15: His6-tagged Z13654 (designed binder)
chain: B1 chain with R21L, S22E, A25K, L44H, T47D
B16: His6-tagged Z13669 (designed binder)
chain: B1 chain with R21L, S22A, A23S, A25G, L44H, T47R
B17: His6-tagged Z13674 (designed binder)
chain: B1 chain with R21I, S22E, A23D, A25G, L44H, T47R
B18: His6-tagged Z13675 (designed binder)
chain: B1 chain with R21N, S22Q, L44H, T47R
B19: Z11948-G4S-Z11948 (designed binder)
chain: AEAKYAKEQDAAAHEIRWLPNLTFDQRVAFIHKLADDPSQSSELLSEAKKLNDSQAPKGTGGGGSPRAEAKYAKEQDAAAHEIRWLPNLTFDQRVAFIHKLADDPSQSSELLSEAKKLNDSQAPKLEHHHHHH
notes: Homodimeric construct in one chain
B20: Z11948-(G4S)3-Z11948 (designed binder)
chain: AEAKYAKEQDAAAHEIRWLPNLTFDQRVAFIHKLADDPSQSSELLSEAKKLNDSQAPKGTGGGGSGGGGSGGGGSAEAKYAKEQDAAAHEIRWLPNLTFDQRVAFIHKLADDPSQSSELLSEAKKLNDSQAPKLEHHHHHH
notes: as for B19
B21: His6-tagged Z10127 (designed binder)
chain: B1 chain with S22K, A23D, A25G, V40S, L44K, T47E
B22: His6-tagged Z10129 (designed binder)
chain: B1 chain with R21Q, S22H, A23D, F36Y, L44R, T47H
B23: His6-tagged Z10141 (designed binder)
chain: B1 chain with R21N, S22Q, A23G, F36W, L44R, T47Q
B24: His6-tagged Z10145 (designed binder)
chain: B1 chain with R21N, S22Q, A23D, F36Y, L44G, T47N
B25: Z07909-ABD fusion (designed binder)
chain: AQHDEALEVDAKYAKERQEAAHEIRWLPNLTFDQRVAFIVKLLDDPSQSSELLSEAKKLNDSQAPKVDYVLAEAKVLANRELDKYGVSDYYKNLINNAKTVEGVKALIDEILAALPYVPG
notes: domain: GA3; periplasmic Z-ABD fusion
B26: Z07930-ABD fusion (designed binder)
chain: B25 chain with R17S, Q18D, E19S, A21V, V40H
notes: as for B25
B27: Z07960-ABD fusion (designed binder)
chain: B25 chain with R17F, Q18E, E19S, F32Y, V40H, L43S
notes: as for B25
B28: Z10111-ABD fusion (designed binder)
chain: B25 chain with R17D, Q18D, E19T, F32Y, D33E, V36W, V40H, L43Y
notes: as for B25
B29: Z10127-ABD fusion (designed binder)
chain: B25 chain with Q18K, E19D, A21G, V36S, V40K, L43E
notes: as for B25
B30: Z10129-ABD fusion (designed binder)
chain: B25 chain with R17Q, Q18H, E19D, F32Y, V40R, L43H
notes: as for B25
B31: Z10140-ABD fusion (designed binder)
chain: B25 chain with Q18S, E19A, V40L, L43T
notes: as for B25
B32: Z10141-ABD fusion (designed binder)
chain: B25 chain with R17N, E19G, F32W, V40R, L43Q
notes: as for B25
B33: Z10145-ABD fusion (designed binder)
chain: B25 chain with R17N, E19D, F32Y, V40G, L43N
notes: as for B25
B34: Z10152-ABD fusion (designed binder)
chain: B25 chain with R17E, Q18D, E19V, D33N, V36A, V40D
notes: as for B25
B35: Z10156-ABD fusion (designed binder)
chain: B25 chain with Q18T, E19Q, A21S, F32Y, V40N, L43R
notes: as for B25
B36: Z10161-ABD fusion (designed binder)
chain: B25 chain with R17S, Q18G, E19Y, A21V, V40N, L43Q
notes: as for B25
B37: Z10183-ABD fusion (designed binder)
chain: B25 chain with R17A, Q18D, E19N, A21G, F32W, D33A, V36W, V40H
notes: as for B25
B38: Z07918-ABD fusion (designed binder)
chain: B25 chain with R17Q, Q18D, E19A, V40H, L43A
notes: as for B25

The binders below were run against T1, human FcRn: extracellular domain of human αFcRn in complex with human β2-microglobulin, soluble, produced in … (human, UniProt P55899 24-290; P16213 21-119) (assay: Biacore, human FcRn immobilized, pH 6.0, Langmuir 1:1).
T1 construct: Ig kappa leader cleaved upon secretion; Biotinylated for ELISA, amine coupled for Biacore; also called hFcRn; not shown: C-terminal GS-linker and FLAG tag; C-terminal GS-linker and His6 tag
Protocol: (§1) One flow cell surface on the chip was activated and deactivated for use as blank during analyte injections.
Kinetic constants were calculated from the sensorgrams using the Langmuir 1:1 model of BiaEvaluation software 4.1 (GE Healthcare).

Row | Binder | Kd [nM] | koff [s⁻¹] | kon [M⁻¹ s⁻¹]
1 | B1 | 86 | 0.12 | 1.4e+06
2 | B2 | 370 | 0.28 | 760000
3 | B3 | 130 | 0.13 | 1e+06

The binders below were run against T1, human FcRn: extracellular domain of … (assay: Biacore, human FcRn immobilized, pH 6.0, fusion to PP013-Z03638).

Row | Binder | Kd [nM] | koff [s⁻¹] | kon [M⁻¹ s⁻¹]
4 | B4 | 62 | 0.047 | 773000
5 | B5 | 820 | 0.275 | 335000
6 | B6 | 98 | 0.064 | 654000

These binders were tested against T2, human FcRn (Biorbyt, cat. no. orb84388) (human, UniProt P55899 24-297; P61769 21-119, limits assumed) (assay: AlphaLISA blocking of IgG (Roactemra) binding to biotinylated human FcRn, pH 6.0).
T2 construct: Bought protein; Biotinylated in AlphaLISA and ELISA; also called biotinylated human FcRn
Protocol: Stepwise serial dilutions 1:3 of His-tagged Z variants to final concentrations of 250 nM to 38 pM were made in a 384-well plate (Perkin Elmer, cat. no. G6005350) and incubated for 45 min with 10 nM biotinylated human FcRn (Biorbyt, cat. no. orb84388; biotinylated essentially as described in Example 2) in AlphaLISA buffer (Perkin Elmer, cat. no. AL000F) adjusted to pH 6.0 using HCl. IgG-coated Acceptor beads were added to a final concentration of 10 μM and incubated for 45 min. Finally, streptavidin coated Donor beads (Perkin Elmer, cat. no. 6772002) were added to a final concentration of 40 μg/ml and incubated for 30 min. All incubations were performed at RT in the dark. The plate was analyzed in the EnSpire instrument and the IC50 values were calculated using GraphPad Prism 5.

Row | Binder | IC50 [nM]
7 | B7 | 57
8 | B1 | 56
9 | B3 | 39
10 | B8 | 130
11 | B9 | 7.4
12 | B10 | 46
13 | B11 | 46
14 | B12 | 12
15 | B13 | 2.7
16 | B14 | 6.4
17 | B15 | 3.5
18 | B16 | 5.2
19 | B17 | 2.5
20 | B18 | 8.2
21 | B19 | 0.38
22 | B20 | 0.41

These binders were tested against T1, human FcRn: extracellular domain of … (assay: Biacore, human FcRn immobilized, 250 nM, pH 6.0).
Description: as §1

Row | Binder | binding result
23 | B21 | binds
24 | B22 | binds
25 | B23 | binds
26 | B24 | binds

These binders were tested against T1, human FcRn: extracellular domain of … (assay: ELISA, Z-ABD captured on anti-ABD, biotinylated human FcRn titrated, pH 6.0).
Protocol: After washing as described above, 50 μl ImmunoPure TMB substrate (Thermo Scientific, cat. no. 34021) was added to the wells and the plates were treated according to the manufacturer's recommendations.

Row | Binder | Kd [nM]
27 | B25 | 24.5
28 | B26 | 10.4
29 | B27 | 6
30 | B28 | 11.4
31 | B29 | 21.3
32 | B30 | 17.6
33 | B31 | 8.8
34 | B32 | 21.2
35 | B33 | 42
36 | B34 | 24.6
37 | B35 | 21.3
38 | B36 | 163
39 | B37 | 10.9

What follows are binders tested against T3, human PSMA (in house produced) (human, UniProt Q04609 44-750, limits assumed) (assay: ELISA, pH 6.0 and pH 7.4).
T3 construct: Biotinylated
T3 sequence (Q04609 44-750 limits assumed): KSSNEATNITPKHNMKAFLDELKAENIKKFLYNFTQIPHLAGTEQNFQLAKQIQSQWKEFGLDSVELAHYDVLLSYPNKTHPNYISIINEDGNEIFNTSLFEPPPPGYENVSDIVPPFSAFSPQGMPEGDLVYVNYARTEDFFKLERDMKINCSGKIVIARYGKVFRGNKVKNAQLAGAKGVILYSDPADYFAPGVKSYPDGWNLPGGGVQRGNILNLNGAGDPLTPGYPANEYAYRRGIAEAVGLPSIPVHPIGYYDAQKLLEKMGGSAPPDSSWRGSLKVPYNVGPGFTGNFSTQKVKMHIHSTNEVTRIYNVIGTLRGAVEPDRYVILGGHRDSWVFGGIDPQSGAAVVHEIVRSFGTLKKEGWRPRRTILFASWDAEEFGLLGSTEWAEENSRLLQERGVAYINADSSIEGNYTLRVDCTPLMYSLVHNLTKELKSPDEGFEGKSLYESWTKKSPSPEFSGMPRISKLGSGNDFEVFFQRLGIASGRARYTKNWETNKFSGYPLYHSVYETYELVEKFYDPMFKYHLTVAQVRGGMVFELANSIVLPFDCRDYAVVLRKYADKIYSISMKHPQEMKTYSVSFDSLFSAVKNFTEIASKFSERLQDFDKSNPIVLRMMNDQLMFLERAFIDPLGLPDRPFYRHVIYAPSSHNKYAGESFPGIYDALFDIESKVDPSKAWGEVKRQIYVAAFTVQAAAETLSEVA

Row | Binder | binding result
40 | B38 | no binding (tested: 2 µg/ml)
41 | B25 | no binding (tested: 2 µg/ml)
42 | B26 | no binding (tested: 2 µg/ml)
43 | B27 | no binding (tested: 2 µg/ml)
44 | B28 | no binding (tested: 2 µg/ml)
45 | B29 | no binding (tested: 2 µg/ml)
46 | B30 | no binding (tested: 2 µg/ml)
47 | B31 | no binding (tested: 2 µg/ml)
48 | B32 | no binding (tested: 2 µg/ml)
49 | B33 | no binding (tested: 2 µg/ml)
50 | B34 | no binding (tested: 2 µg/ml)
51 | B35 | no binding (tested: 2 µg/ml)
52 | B36 | no binding (tested: 2 µg/ml)
53 | B37 | no binding (tested: 2 µg/ml)
